# Source: PubChem BioAssay AID1030 (National Center for Advancing Translational Sciences (NCATS), 2008)
# Out of some 220,000 compounds screened, about 16,000 (7.3%) were called active. The inconclusive results got no clear call from the source; some entries with a clear call stand among them for comparison. The call rests on the fitted dose curve; in most records, active means well fitted inhibition curve with a large enough effect (not every such curve was filed as active); inconclusive means small, poorly fitted or top-dose-only effect, or another doubt; inactive means no such curve, though single readings can be large or run the other way. Potencies of inconclusive entries are left out as doubtful fits.
# Molecular target: Aldehyde dehydrogenase 1A1 (Homo sapiens) (UniProt P00352)
# Chain of UniProt P00352 (P00352 whole entry, looked up): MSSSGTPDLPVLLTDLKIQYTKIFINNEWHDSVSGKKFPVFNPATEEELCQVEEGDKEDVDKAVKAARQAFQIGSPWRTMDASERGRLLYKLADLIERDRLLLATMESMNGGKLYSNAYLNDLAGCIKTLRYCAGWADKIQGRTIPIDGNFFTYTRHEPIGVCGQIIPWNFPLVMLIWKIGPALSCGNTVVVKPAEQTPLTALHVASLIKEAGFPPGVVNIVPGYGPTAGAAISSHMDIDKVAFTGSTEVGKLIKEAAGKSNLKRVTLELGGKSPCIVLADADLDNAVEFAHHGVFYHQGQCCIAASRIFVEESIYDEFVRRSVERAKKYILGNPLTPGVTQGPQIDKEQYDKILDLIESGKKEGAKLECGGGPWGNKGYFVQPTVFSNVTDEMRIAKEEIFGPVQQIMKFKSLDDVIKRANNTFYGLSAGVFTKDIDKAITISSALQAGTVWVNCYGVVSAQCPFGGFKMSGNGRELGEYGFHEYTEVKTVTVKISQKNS
# Experiment: qHTS Assay for Inhibitors of Aldehyde Dehydrogenase 1 (ALDH1A1);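 on activity, negative = inhibition: plate controls were no enzyme wells and a reference inhibitor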
# Conditions: Purified ALDH1A1, NADH fluorescence, propionaldehyde substrate; series mostly up to 75.3 µM; activity, negative = inhibition: at the top concentration
# Potency means the concentration at half of the fitted maximal effect; tags describe the fitted curve by direction and shape.
Structure (SMILES),Potency,"activity, negative = inhibition"
CC1CCc2c(sc(NC(=O)c3ccc(Cn4cc([N+](=O)[O-])cn4)o3)c2C#N)C1 (configuration not stated),active: 25.1 µM,–
Nc1ccc(-c2nc3ccc(C(=O)O)cc3s2)cc1,"inconclusive [inhibitor, partial curve]",–
Cc1[nH]c(=O)[nH]c(=O)c1NC(=O)CSc1ncccc1-c1nc2ccccc2[nH]1,"inconclusive [inhibitor, single point]",–
Cc1ccsc1S(=O)(=O)N1CCCC(CCC(=O)NCc2ccccc2F)C1 (configuration not stated),–,inactive: 0.116%
CCN(CC)C(=O)Cn1cc(C(=O)C(=O)N2CCCc3ccccc32)c2ccccc21,"inconclusive [inhibitor, single point]",–
Cc1cc(C)n(-c2nc3ccccc3nc2N2CCCCCC2)n1,"inconclusive [inhibitor, single point]",–
Cc1ccc(C)c(OCc2ccc(C(=O)NN)o2)c1,"inconclusive [inhibitor, partial curve]",–
Cc1ccc(C)c(S(=O)(=O)N2C(=S)NC(=O)C2C(C)C)c1 (configuration not stated),"inconclusive [inhibitor, single point]",–
COc1cccc(C(=O)Nc2cccc(NC(C)=O)c2)c1,–,inactive: -11.1%
COC(=O)c1ccc(N2CCC(C)CC2)c(N)c1,"inconclusive [inhibitor, partial curve]",–
CC(=O)C(Cc1ccccc1)NC(=O)CN1CCN(Cc2ccccc2)CC1 (configuration not stated),"inconclusive [inhibitor, single point]",–
O=C(CNC(=O)C1CCCCC1)OCn1nnc2ccccc2c1=O,"inconclusive [inhibitor, single point]",–
COc1ccc(CCNC(=O)CSc2nnnn2-c2ccccc2OC)cc1OC,active: 0.282 µM,–
NCCCCCc1nnc(SCC(=O)Nc2cccc(Cl)c2)o1,"inconclusive [inhibitor, partial curve]",–
O=C(Nc1ccccc1-c1ccccc1)C1CCCC1,–,inactive: 7.89%
Cc1nn(-c2ccccc2)c(C)c1/C=C/C(=O)OCC(=O)Nc1ncc(Cl)cc1Cl,"inconclusive [inhibitor, single point]",–
CCOc1cc(NS(=O)(=O)c2ccc(Cl)cc2)c(OCC)cc1NC(=O)CC(C)C,"inconclusive [inhibitor, single point]",–
C=CCn1c(=O)c2ccc(C(=O)NCc3ccccc3)cc2n(Cc2ccc(C)cc2)c1=O,–,inactive: -11.1%
NS(=O)(=O)c1ccc(NC(=S)Nc2ccc(OCc3ccccc3)cc2)cc1,"inconclusive [inhibitor, single point]",–
COc1ccc(S(=O)(=O)Nc2ccc(Oc3ncccn3)c(Cl)c2)cc1,–,inactive: -2.26%
CC(C)(C)c1ccccc1OCCCCCn1ccnc1,"inconclusive [inhibitor, partial curve]",–
O=C(CCNS(=O)(=O)c1cccc2nsnc12)N1CCN(c2ccccn2)CC1,"inconclusive [inhibitor, single point]",–
CCCNC(=O)NC(=O)COc1ccc2oc3ccccc3c2c1,"inconclusive [inhibitor, single point]",–
CCOC(=O)Cn1nnc(-c2ccc(OCC(C)C)cc2)n1,–,inactive: 3.42%

Structure (SMILES),Potency,"activity, negative = inhibition"
Oc1c(Cl)cc(Cl)cc1C1=NNC(c2ccc(Cl)cc2)C1 (configuration not stated),active: 6.31 µM,–
Cc1ccc2[nH]c3c(c2c1)CN(C(=O)CN1CCN(c2ccccc2F)CC1)CC3,active: 8.91 µM,–
CC(=O)Nc1ccc(NC(=O)C(C)OC(=O)CNS(=O)(=O)c2cccc(Cl)c2)cc1 (configuration not stated),–,inactive: 7.87%
O=c1cc(-c2ccccc2)nc2cc(-c3ccco3)[nH]n12,"inconclusive [inhibitor, single point]",–
Cc1ccc(CC(=O)Nc2nc3ccccc3[nH]2)cc1C,–,inactive: -1.45%
CCC1CCCCN1C(=O)CSc1nc(N)c(NC(=O)c2ccc(OC)c(OC)c2)c(=O)[nH]1 (configuration not stated),–,inactive: -8.87%
CN(C)c1ccc(/C=N/NC(=O)c2nonc2N)cc1[N+](=O)[O-],active: 2 µM,–
CC(/C=C/c1ccccc1)=N/NC(=O)CNC(=O)c1ccccc1F,–,inactive: 2.72%
O=C(NCc1cccnc1)c1cc2ccccc2oc1=O,"inconclusive [inhibitor, single point]",–
Cc1cc2c(N)cccc2nn1,active: 3.98 µM,–
Oc1ccc2ccccc2c1CN1CCN(c2ccccc2F)CC1,"inconclusive [inhibitor, single point]",–
Cc1ccc(NC(=O)CO/N=C(\N)c2nonc2N)cc1,"inconclusive [inhibitor, single point]",–
O=C(c1cccc(F)c1)N1CCC2(CC1)CN(c1ccccn1)C2,"inconclusive [inhibitor, partial curve]",–
Cc1c(Br)cc(C(=O)N2CCCCCC2)c(C)c1C,"inconclusive [inhibitor, partial curve]",–
CCCCCCN(C(=O)CCCCCN1C(=O)NC(c2ccc(-c3ccccc3)cc2)C(C(=O)OCc2ccccc2)=C1C)C(C(=O)NCCCC)c1ccc(OCC(=O)O)c(C(=O)O)c1 (configuration not stated),–,inactive: -13.4%
CC1S/C(=C(\C#N)C(=O)NCc2ccco2)N(Cc2ccco2)C1=O (configuration not stated),"inconclusive [inhibitor, single point]",–
O=C(NNS(=O)(=O)c1ccccc1[N+](=O)[O-])c1cccc(Cl)c1,"inconclusive [inhibitor, single point]",–
O=S(=O)(NC1CC1)c1ccc(S(=O)(=O)N2CCc3ccccc32)cc1,"inconclusive [inhibitor, single point]",–
Cc1ccc(C(=O)O/N=C/c2ccc(N(C)C)cc2)cc1,"inconclusive [inhibitor, partial curve]",–
Cc1cccc(Cl)c1NC(=O)N1CCCN(c2ncccc2[N+](=O)[O-])CC1,–,inactive: -3.22%
COc1ccc(/C=N/N=C2/NC(=O)C(CC(=O)O)S2)cc1OCc1ccccc1Cl (configuration not stated),"inconclusive [inhibitor, single point]",–
CCOC(=O)CC(C(=O)OCC)P(=O)(c1ccccc1)c1ccccc1 (configuration not stated),active: 10 µM,–
Cc1cc(C)nc(NS(=O)(=O)c2ccc(NC(=O)CSc3nc(-c4ccccc4)c(C#N)c(=O)[nH]3)cc2)n1,"inconclusive [inhibitor, single point]",–
COc1ccc(C(CC(=O)O)NC(=O)c2ccco2)cc1 (configuration not stated),–,inactive: 8.76%

Structure (SMILES),Potency,"activity, negative = inhibition"
CCOC(=O)/C(C#N)=C/c1cn(CCC(=O)O)nc1-c1ccccc1,–,inactive: -1.42%
COC(=O)c1ccc(COc2ccc3c4c(c(=O)oc3c2)CCC4)o1,"inconclusive [inhibitor, partial curve]",–
Brc1cccc(OCCOCCn2ccnc2)c1,"inconclusive [inhibitor, single point]",–
COc1ccc(-c2nc(CSCC(=O)NCC3CCCO3)c(C)o2)cc1OC (configuration not stated),"inconclusive [inhibitor, partial curve]",–
C/C=C/Cn1c(SCc2ccc(C)cc2)nc2c1c(=O)[nH]c(=O)n2C,"inconclusive [inhibitor, partial curve]",–
COc1ccc(N(CC(=O)NCCSCc2ccco2)S(=O)(=O)c2ccc(C)cc2)cc1,active: 20 µM,–
COc1ccccc1OCc1ccc(C(=O)NC(C)(C)C)o1,"inconclusive [inhibitor, single point]",–
Cc1cccc(-c2nc(C#N)c(N3CCCCCC3)o2)c1,"inconclusive [inhibitor, partial curve]",–
Cc1ccc(N2C(=O)NC(NC(=O)C(C)(C)C)(C(F)(F)F)C2=O)cc1 (configuration not stated),–,inactive: 0.79%
CC(=O)n1cc([C@H]2C=C(C(=O)NCc3ccccc3)O[C@@H](OCCCCO)C2)c2ccccc21,–,inactive: -7.25%
Fc1cc2nc(-c3ccncc3)[nH]c2cc1F,"inconclusive [inhibitor, partial curve]",–
CC1(C)OC2CC3C4CCC5=CC(=O)C=C[C@@]5(C)[C@]4(F)C(O)C[C@@]3(C)[C@]2(C(=O)CO)O1 (some centres not stated),–,inactive: -12%
COc1cc(/C=C/C(=O)OCC(=O)N2CCCCCC2)ccc1OCC#N,"inconclusive [inhibitor, single point]",–
COc1cc(C)ccc1OCCOCCOc1ccc([N+](=O)[O-])cc1,"inconclusive [inhibitor, single point]",–
CC(C)c1nnc(SCC(=O)NCc2ccco2)n1C,–,inactive: 2.45%
O=C(Nc1cc(C(F)(F)F)ccc1N1CCCC1)c1cccnc1,–,inactive: -2.67%
O=C(OC1CCOC1=O)c1ccc(N2CCCC2)c([N+](=O)[O-])c1 (configuration not stated),active: 14.1 µM,–
CC(NC(=O)/C(=C\c1cccc([N+](=O)[O-])c1)NC(=O)c1ccco1)C(=O)O (configuration not stated),active: 6.31 µM,–
COc1ccccc1C(=O)Nc1ccc(S(=O)(=O)NC2=NCCCCC2)cc1,"inconclusive [inhibitor, full curve]",–
CCOC(=O)c1c(C)[nH]c(C2=NNC(=NC3CC3)SC2)c1C,active: 17.8 µM,–
COc1ccc(-n2c(=O)c(-c3cc(F)cc(F)c3)nc3cnc(N4CCOCC4)nc32)cc1,"inconclusive [inhibitor, single point]",–
CC1(C)C2CCC(C2)C1C/C=N/NC(N)=S (configuration not stated),"inconclusive [inhibitor, single point]",–
CC(C)C(c1nnnn1Cc1ccc(F)cc1)N1CCN(Cc2ccc3c(c2)OCO3)CC1 (configuration not stated),"inconclusive [inhibitor, single point]",–
COc1ccc(NC(=O)/C(Cl)=C(/Cl)S(=O)(=O)Cc2ccccc2)cn1,active: 1.26 µM,–
